# Experimental data as given in article PMC12040169 (PLOS Biology, 2025).
# The other results are listed elsewhere or left out.
# Test system: T1, C. trachomatis L2/434/Bu expressing GFP (CTL2-GFP)
# T1 construct: L2/434/Bu GFP intracellular growth in HeLa cells
# Parameters: species or system HeLa; C. trachomatis total inclusion area by high-content imaging, normalised to DMSO
# Settings: total inclusion area; 28.5 h, 10 µM; inhibitor
# Procedure, shortened: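 Bulk GFP and resorufin signals were read first. Wells were then fixed, stained with Hoechst and imaged to detect GFP inclusions and host nuclei. MICs followed the previously described calculation.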
row,Compound,% of control remaining
1,Cc1ccccc1C(=O)NCC(=O)Nc1ccc2cc(Br)cnc2n1 [CBK063312],77.7154
2,CCN(CC)C(=O)c1ccccc1NS(=O)(=O)c1ccc(F)cc1 [CBK045414],116.954
3,CC(C)(C)OC(=O)N1CCCC(NCc2ccccn2)CC1 (stereo not shown) [CBK305128],83.2278
4,CC1=CCN(C(=O)c2cccc(S(=O)(=O)NCC3CCCO3)c2)CC1 (stereo not shown) [CBK304669],89.3197
5,COc1cc(/C=N/c2ccc3oc(-c4ccc(C(C)(C)C)cc4)nc3c2)ccc1OC(=O)c1ccc(Cl)cc1Cl [CBK261238],98.3524
6,Nc1nc2c(ccn2[C@H]2C[C@@H](O)[C@@H](CO)O2)c(=O)[nH]1 [CBK201238],122.343
7,NC(=O)CN1CCC(Oc2cncc(OCc3ccc(Cl)c(Cl)c3)n2)C1 (stereo not shown) [CBK084429],91.5334
8,Cc1ccc(CN(c2ccc(C(=O)O)cc2)S(C)(=O)=O)cc1 [CBK287203],89.2967
9,CCCN1CCC(CNC(=O)c2cc3ccc(OC)cc3n2C)CC1 [CBK282542],129.217
10,CCCNc1cncc(-c2cccc(CO)c2)n1 [CBK065433],113.012
11,Cc1cc2nc(-c3cc(NC(=O)c4cccc([N+](=O)[O-])c4)ccc3O)oc2cc1C [CBK262855],85.7249
12,NC(=O)COc1ccc(CNC(=O)CN2CCc3sccc3C2)cc1 [CBK306111],87.0353
13,CSc1nc(C)c(CCC(=O)N(C)Cc2c(C)nn(-c3ccccc3)c2C)c(=O)[nH]1 [CBK297925],82.0369
14,Cc1cc(NS(=O)(=O)c2ccc(NC(=O)c3cc4ccccc4o3)cc2)no1 [CBK267597],112.709
15,CS(=O)(=O)Nc1nccnc1N1CCN(Cc2ccc([N+](=O)[O-])cc2)CC1 [CBK084274],82.7297
16,Cc1ccc2nc(SCC(=O)O)nc(C)c2c1 [CBK265996],98.3181
17,CCN(C(=O)Nc1cccnc1Oc1ccc(F)cc1)C1CCOCC1 [CBK306535],57.8655
18,O=C(CCS(=O)(=O)c1ccccc1)NCc1ccccc1OC1CCNC1 (stereo not shown) [CBK028296T],74.3595
19,CC(=O)Nc1ccc(N2CC(C(=O)O)CC2=O)cc1 (stereo not shown) [CBK287149],97.9148
20,Cc1ccn(-c2ccc(N3CCC(OC4CCOCC4)CC3)nn2)n1 [CBK306296],57.3399

row,Compound,% of control remaining
1,CCC(CN(C)C)C(=O)c1ccccc1 (stereo not shown) [CBK015409C],72.7908
2,CCOC(=O)N1CCN(CC2CCCCN2)CC1 (stereo not shown) [CBK022780G],53.4432
3,O=C(NC(c1ccc(Cl)cc1)c1ccsc1)C1CCN(S(=O)(=O)CC(F)(F)F)CC1 (stereo not shown) [CBK060088],72.9877
4,Cc1ccc2nc(-c3ccccn3)cc(C(=O)NCc3ccccn3)c2c1 [CBK267782],112.111
5,S=C1NC2(CCCCC2)NC12CCCCC2 [CBK006533],77.0665
6,Cc1nc([N+](=O)[O-])c(C(=O)OCc2ccccc2C#N)n1C [CBK293991],106.72
7,CC(Cn1cc(Cl)cn1)C(=O)N1CCN(C)CC1c1ccccc1 (stereo not shown) [CBK282016],99.0057
8,O=C1CN(S(=O)(=O)CCOc2ccccc2)CC(=O)N1CCc1ccccc1 [CBK261134],91.8118
9,CC(C)Nc1cccnc1N(C)C1CCN(C(=O)c2cc(Br)c[nH]2)CC1 [CBK016797],63.1294
10,O=C(C1CC1)N1CCCc2cc(C(O)CN3CCCCC3)ccc21 (stereo not shown) [CBK282135],102.127
11,Cc1ccc(-c2noc(CN(C(=O)c3ccc(Br)o3)C(C)C)n2)cc1 [CBK269440],48.0158
12,COCCn1c(CN2CCOCC2)nc2c1c(=O)[nH]c(=O)n2C [CBK269890],85.7869
13,CN(C)C(=O)c1cc(-c2ccco2)cnc1NS(C)(=O)=O [CBK076490],107.287
14,CC1(C)N=C(c2ccc(Cl)cc2Cl)C(=S)N1 [CBK288449],73.4228
15,Cn1nc(-c2ccc(S(=O)(=O)Nc3cccc(C(=O)O)c3)s2)cc1C(F)(F)F [CBK155080],89.6417
16,O=C1NCCN(C(=O)c2cccc3cccnc23)C1Cc1ccc(-c2cccs2)cc1 (stereo not shown) [CBK285809],87.2385
17,CC1=CC(C)(NC(N)=O)NC(=S)N1 (stereo not shown) [CBK020817],28.4547
18,CCc1cnc(CNC(=O)NCc2nc3cc(C)ccc3n2C)s1 [CBK306261],72.3652
19,C=CCNc1nccnc1-c1cccnc1 [CBK037016],115.696
20,O=C(CC1CCCCC1)N1CCC2(CCCNC2)C1 (stereo not shown) [CBK137154C],91.0461
